Our source for the binding signal values is PMC7819943, “Rice protein-binding microarrays: a tool to detect cis-acting elements near promoter regions in rice”.

The other results are listed elsewhere or left out.

In this test the target is T1, OsWOX13 (Oryza sativa, UniProt Q5QMM3 1-267).
T1 sequence: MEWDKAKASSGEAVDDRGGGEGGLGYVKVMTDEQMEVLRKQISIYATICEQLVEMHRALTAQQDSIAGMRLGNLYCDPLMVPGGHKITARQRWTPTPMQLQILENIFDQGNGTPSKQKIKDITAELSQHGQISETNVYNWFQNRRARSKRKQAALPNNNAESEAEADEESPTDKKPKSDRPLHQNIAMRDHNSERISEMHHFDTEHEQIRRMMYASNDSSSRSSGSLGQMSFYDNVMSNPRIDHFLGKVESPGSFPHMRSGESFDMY
Nature of the test: protein-binding microarray (RPBM); PBS, 2% BSA, 51.3 ng/ul salmon testes DNA, 50 uM zinc acetate, 200 nM TF, 25 C, 1 h; high values mean tight binding. The note with it: protein: recombinant; tags: N-terminal polyhistidine and DsRed monomer fusion (pET32a); label: CyDye5-dUTP incorporated in the synthesized complementary strand; 3' TTTTT single-stranded linker to array surface; dsDNA, one strand shown. Put shortly: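 Polyhistidine-tagged DsRed fusions of transcription factors, joined at the N-terminus, were expressed in E. coli BL21-CodonPlus and isolated on Ni–NTA. They were incubated at 200 nM for 1 h at 25 °C on a custom Agilent array, double-stranded and BSA-blocked, in PBS with 2% BSA, salmon testes DNA and 50 µM zinc acetate. The binding signal is per-feature fluorescence intensity (arbitrary units) read on an Axon 4000B scanner after washing.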
“GGGGCGTGAATTAGATTTAACCTATATATCGGGGAGTCTACGGAGTCACCTAGTGCAG”: the binding signal is 4220 fluorescence intensity (a.u.).

“CAATAATTCCCTTAAAATAGAATTATGTAGCCTATTGCTACGGAGTCACCTAGTGCAG”: the binding signal is 4220 fluorescence intensity (a.u.).

Take “ATTTACATAATTATCATTTATTTTGTTATGAATTGTTTTACGGAGTCACCTAGTGCAG”: the binding signal is 15200 fluorescence intensity (a.u.).

Take “TGAAAATTTTAATTTTGGTAGGTGCCCCTTTAGGAGGCCCCGGAGTCACCTAGTGCAG”: the binding signal was 6660 fluorescence intensity (a.u.).

With “GTTTGATTATTTGCTGCCTCCAGTGGGTTGGGTGTTCTTGCGGAGTCACCTAGTGCAG”, the binding signal is 39100 fluorescence intensity (a.u.).

Regarding “TGTTTGCGATTGATTTGTACTACACAGTGGGTGCTTCTCCCGGAGTCACCTAGTGCAG”, the binding signal was 35300 fluorescence intensity (a.u.).

For “ACTCGAGATTTTAAGAATCAATTATCTTTCAGTGTACAATCGGAGTCACCTAGTGCAG”, the binding signal is 4170 fluorescence intensity (a.u.).

For the sequence “CTTAATTGCTAATACCTGATGAATATTAGAAATATACTAGCGGAGTCACCTAGTGCAG”, the binding signal is 38200 fluorescence intensity (a.u.).

“GGAAATTTCAATCTAATGTCATAGGAAAACTTCCTCTCCTCGGAGTCACCTAGTGCAG”: the binding signal is 36400 fluorescence intensity (a.u.).

As for “ACTACAAATAATAATTGGTTTGCATTGGTGTTAGAATAGGCGGAGTCACCTAGTGCAG”, the binding signal was 7200 fluorescence intensity (a.u.).

Turning to “GTCTGACTGTTTTCCTTATTATATCATTGGATTGGTATCACGGAGTCACCTAGTGCAG”, the binding signal is 14600 fluorescence intensity (a.u.).

As for “TGAAGTCCAAATCAAACTATCAATTATATATGCAATGGACCGGAGTCACCTAGTGCAG”, the binding signal is 13100 fluorescence intensity (a.u.).

“CCAAGATGAATTGGAACTTTGCACACCAACCAAATAGGGGCGGAGTCACCTAGTGCAG”: the binding signal was 3580 fluorescence intensity (a.u.).

In the case of “AGCCAATCACTCACTCACCAAGGTCTCCCACTCCTAGTCACGGAGTCACCTAGTGCAG”, the binding signal was 17000 fluorescence intensity (a.u.).

“CTGTTCAGCTAATTACTGAAAATATGAGTGGTGGCAAGCCCGGAGTCACCTAGTGCAG”: the binding signal is 7260 fluorescence intensity (a.u.).

As for “TCAGCACATGATTAAATCTATTAGAGAATAAATGGGAAATCGGAGTCACCTAGTGCAG”, the binding signal was 12600 fluorescence intensity (a.u.).

Consider “TAAATTAACTGTGTAAGGTCTGATCATATTTTCTTCTTAACGGAGTCACCTAGTGCAG”, for which the binding signal was 10600 fluorescence intensity (a.u.).

In the case of “TCCAATAAACAGAGAGTGATGTGGGCTTTCTTTCTGTACACGGAGTCACCTAGTGCAG”, the binding signal was 10800 fluorescence intensity (a.u.).

“ACAATTAATTAACTTCCATTATCTAAAATCCAAAGGTAAACGGAGTCACCTAGTGCAG”: the binding signal is 33600 fluorescence intensity (a.u.).

On to “GCTAAAATTAGTAGTTTGATTGAAATTGGAACGATGTGACCGGAGTCACCTAGTGCAG”, for which the binding signal was 33800 fluorescence intensity (a.u.).

With “AAAACTATATAATTAGAAATACGGGGATGATAAGCTTTGGCGGAGTCACCTAGTGCAG”, the binding signal was 8120 fluorescence intensity (a.u.).

Regarding “GTCCATTAATGGGAAAATAAGCTCATTTACGCGTGCAGTCCGGAGTCACCTAGTGCAG”, the binding signal was 6090 fluorescence intensity (a.u.).

In the case of “ACGTAATGATATAAATTATACGATACAGATATCCTTAAAACGGAGTCACCTAGTGCAG”, the binding signal is 12600 fluorescence intensity (a.u.).

In the case of “ATTAACTAACTCTGTGATTTATTGTTGTTAACGAAGTTAGCGGAGTCACCTAGTGCAG”, the binding signal was 17100 fluorescence intensity (a.u.).

With “ATGTGTGATTTGTTGCAATAGTAGATAGGAGCATAGATACCGGAGTCACCTAGTGCAG”, the binding signal was 15800 fluorescence intensity (a.u.).

Turning to “GGATAAATAGATTTATATATTTAGAGTTGGACATAGTTATCGGAGTCACCTAGTGCAG”, the binding signal was 27600 fluorescence intensity (a.u.).

As to “ACAAGATAAATTTCTTTCCTGATAACGCCGAGAAGTAGCTCGGAGTCACCTAGTGCAG”, the binding signal is 5540 fluorescence intensity (a.u.).

“AATATTATTTATATGTAATTACATAAGTAATATGTAATTTCGGAGTCACCTAGTGCAG”: the binding signal is 9490 fluorescence intensity (a.u.).

As to “CGCTAATTAGGAAGAGAAGAGATGAGGAGGATGAGGAGATCGGAGTCACCTAGTGCAG”, the binding signal is 29600 fluorescence intensity (a.u.).

On to “TTTAAAATTTTAATTGAATTTTCTCTAAACCTCAGTATGACGGAGTCACCTAGTGCAG”, for which the binding signal was 39000 fluorescence intensity (a.u.).

As to “TGCATCCAGATTGACAGTCCGCTCGTTCACACTGTCAAGACGGAGTCACCTAGTGCAG”, the binding signal was 22800 fluorescence intensity (a.u.).

As for “TAATTTTAAATTATTTTAATAAGACGAGTGATTAAACAGTCGGAGTCACCTAGTGCAG”, the binding signal was 9500 fluorescence intensity (a.u.).

As to “TTTTGGTAAATTTCTTGACAGTAGATGATGGTCATGTGTTCGGAGTCACCTAGTGCAG”, the binding signal is 4160 fluorescence intensity (a.u.).

In the case of “CATTTATATTGATGTTAATGAATCTAAACATATATTCATTCGGAGTCACCTAGTGCAG”, the binding signal was 14100 fluorescence intensity (a.u.).

“GTTCGCGTGATTAATCAAAGCCTATTCCTTGTCACTATGACGGAGTCACCTAGTGCAG”: the binding signal is 12400 fluorescence intensity (a.u.).

“CAAAATTTAACTAAGGATTACAACAATCCATAATGATGTACGGAGTCACCTAGTGCAG”: the binding signal is 9610 fluorescence intensity (a.u.).

Consider “ATTAATTAAGATAGTTGTGATCATCTCCAAGCTTAGCTAACGGAGTCACCTAGTGCAG”, for which the binding signal was 16900 fluorescence intensity (a.u.).

On to “ATTAAATTCTCCATGGTTAATTATACTCTCTGGAATTTTCCGGAGTCACCTAGTGCAG”, for which the binding signal was 5400 fluorescence intensity (a.u.).

Turning to “TAAATTGATAAATATAGTTAATCCTCTATAGATCAAGAATCGGAGTCACCTAGTGCAG”, the binding signal was 19400 fluorescence intensity (a.u.).

With “AATTTAATTTGAAGTATAAGTGGTTCCTATTTGCTTGAAACGGAGTCACCTAGTGCAG”, the binding signal was 14100 fluorescence intensity (a.u.).

For “GGTTAATGGAGATTCCATATGGCATACGATGGAGGAATTGCGGAGTCACCTAGTGCAG”, the binding signal is 8400 fluorescence intensity (a.u.).

For “CTCATCCAAATTTGTGTTTATAAATGTACTATATATATTTCGGAGTCACCTAGTGCAG”, the binding signal was 6890 fluorescence intensity (a.u.).
